Experimental data: PubChem BioAssay (NCI)
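In this assay, cells in 96-well plates receive the compound at five concentrations for 48 hours. Endpoints are linearly interpolated between the surrounding concentrations. At the GI50, growth is halved.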 Certain results were filed several times, with different values. This is not the full list of results. The source may hold further records. For part of these data: Values given together are repeated measurements across runs, samples, wells, individuals or studies. Marks in square brackets tell the records apart. The letters are not those of the source and start again with each entry.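 TGI: total growth inhibition.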 For part of these data: A record mostly stands for its own series of concentrations, which the source does not state; a value can be the end of its range.

How the values were obtained:
Experiment in all cases: NCI tumour cell line growth inhibition, 48 h
CAKI-1 renal = tested on: CAKI-1 renal
HL-60(TB) leukemia = tested on: HL-60(TB) leukemia
HOP-62 NSCLC = tested on: HOP-62 NSCLC
SK-OV-3 ovarian = tested on: SK-OV-3 ovarian
SNB-75 CNS = tested on: SNB-75 CNS
TK-10 renal = tested on: TK-10 renal
NCI/ADR-RES ovarian = tested on: NCI/ADR-RES ovarian
PC-3 prostate = tested on: PC-3 prostate
SF-539 CNS = tested on: SF-539 CNS
SK-MEL-2 melanoma = tested on: SK-MEL-2 melanoma
SK-MEL-5 melanoma = tested on: SK-MEL-5 melanoma
U251 CNS = tested on: U251 CNS
HCC-2998 colon = tested on: HCC-2998 colon
IGROV1 ovarian = tested on: IGROV1 ovarian
MCF7 breast = tested on: MCF7 breast

Compound | TGI (CAKI-1 renal) | TGI (HL-60(TB) leukemia) | TGI (HOP-62 NSCLC) | GI50 (SK-OV-3 ovarian) | GI50 (SNB-75 CNS) | TGI (SNB-75 CNS) | GI50 (TK-10 renal) | TGI (NCI/ADR-RES ovarian) | TGI (PC-3 prostate) | TGI (SF-539 CNS) | TGI (SK-MEL-2 melanoma) | TGI (SK-MEL-5 melanoma) | TGI (SK-OV-3 ovarian) | TGI (U251 CNS) | TGI (HCC-2998 colon) | TGI (IGROV1 ovarian) | TGI (MCF7 breast)
CO/N=C/C=C\C(=O)N/C=C/C[C@H]1/C=C/[C@H](O)/C=C\C=C\c2cccc(O)c2C(=O)O1 | > 32.7 µM [sample A, mean of 2 tests] and 181 nM [sample B, mean of 2 tests] | 7.8 µM [sample A, mean of 2 tests] and 508 nM [sample B, mean of 2 tests] | > 100 µM [sample A, mean of 2 tests] and 7.76 µM [sample B, mean of 2 tests] | 15.1 µM [sample A, mean of 2 tests] and 44.7 nM [sample B, 1 test] | 3.62 µM [sample A, 1 test] and 23.9 nM [sample B, mean of 2 tests] | > 100 µM [sample A, 1 test] and 521 nM [sample B, mean of 2 tests] | 9.24 µM [sample A, mean of 2 tests] and 228 nM [sample B, mean of 2 tests] | – | – | – | – | – | – | – | – | – | –
Cc1ccnc2[nH]c(-c3cccc4ccccc34)cc(=O)c12 | – | – | – | – | – | – | – | 48.6 nM and > 100 µM | 398 nM and > 100 µM | 64.8 nM and > 100 µM | 6.83 nM and 34.6 µM | 14.4 nM and 2.88 µM | 617 nM and 28.8 µM | 479 nM and > 100 µM | – | – | –
CC(=O)O[C@H]1C(=O)[C@@]2(C)[C@H]([C@H](OC(=O)c3ccccc3)[C@]3(O)C[C@H](OC(=O)[C@H](O)[C@@H](NC(=O)c4ccoc4)c4ccccc4)C(C)=C1C3(C)C)[C@]1(OC(C)=O)CO[C@@H]1C[C@@H]2O | – | 46.4 nM and > 100 µM | – | – | – | 51.9 nM and > 100 µM | – | – | – | – | 94.8 nM and > 100 µM | – | – | 66.4 nM and 11.7 µM | 139 nM and > 100 µM | 607 nM and > 100 µM | 387 nM and > 100 µM
